From PubChem BioAssay AID686970 (National Center for Advancing Translational Sciences (NCATS), 2013)
In all, about 360,000 compounds went through this assay and about 6,000 (1.7%) were called active. The inconclusive results got no clear call from the source; some entries with a clear call stand among them for comparison. Calls come from the whole dose curve; as a rule, active = well fitted cell-killing curve with a large enough effect; inconclusive = small, poorly fitted or top-dose-only effect, or effect the other way; inactive = flat fitted curve, though single readings scatter. Potencies of inconclusive entries are left out as doubtful fits.

assay: qHTS for induction of synthetic lethality in tumor cells producing 2HG: qHTS for the HT-1080-NT fibrosarcoma cell line; conditions: HT-1080-NT fibrosarcoma viability, CellTiter-Glo ATP luminescence, 48 h; activity, negative = less viability: at 46.1 µM (top of the series) unless noted;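 note: NT is the 2HG producing partner of a matched IDH1 knockdown line; nearly all actives have a fitted effect of over 55% in size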;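 for activity, negative = less viability: 0% = DMSO-treated cells and -100% = media-only wells without cells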
Summary of the method: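 Fibrosarcoma NT cells, 750 per well in 5% FBS RPMI, were exposed to compound for 48 hours. Viability: CellTiter-Glo luminescence.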
Potency is the fitted concentration of half-maximal effect; tags give direction and shape of the fitted curve.

Structure (SMILES)	Potency	activity, negative = less viability
O=C(CN1C(=O)COc2ccccc21)Nc1ccc(N2CCOCC2)cc1	inconclusive [rising, single point]	–
CCCC(=O)NC1CCc2cc(OC)c(OC)c(OC)c2-c2ccc(OC)c(=O)cc21 (configuration not stated)	inconclusive [cytotoxic, full curve]	–
COc1cccc(CNc2nc(NCc3ccccc3OC)nc3ccsc23)c1	active: 23.1 µM	–
COc1ccc(-n2nc([N+](=O)[O-])c(=NCc3cccnc3)n2O)cc1	inactive	–
Cc1ccc(CN2CCCCC2C(=O)Nc2ccc(Oc3cccnc3)cc2)o1 (configuration not stated)	inconclusive [cytotoxic, partial curve]	–
CCN(CC(=O)NCc1cccs1)C(=O)c1ccc(NS(=O)(=O)c2ccc(F)cc2)cc1	inactive	–
O=C(Nc1ccccc1N1CCN(C(=O)c2ccccc2)CC1)c1ccc([N+](=O)[O-])o1	inconclusive [cytotoxic, single point]	–
COc1ccccc1C(=O)CC(=O)C(=O)Nc1cccc([N+](=O)[O-])c1C	inconclusive [cytotoxic, single point]	–
O=C(Nc1nnc(S(=O)(=O)N2CCCC2)s1)c1cccc([N+](=O)[O-])c1	inactive	–
O=[N+]([O-])c1cc(Br)c2nsnc2c1N1CCOCC1	inconclusive [cytotoxic, partial curve]	–
O=C(NC1CCCc2ccccc21)c1n[nH]c(=O)c2ccccc12 (configuration not stated)	inconclusive [cytotoxic, partial curve]	–
COc1ccc(Cn2cccc(NC(=O)Nc3ccc(F)cc3)c2=O)cc1	inactive	–
CCCS(=O)(=O)N1CCC(C(=O)Oc2ccc(OC)cc2)CC1	inconclusive [cytotoxic, single point]	–
COC(=O)c1c(C)oc2c1cc(NS(=O)(=O)c1cccs1)c1ccccc12	inconclusive [cytotoxic, single point]	–
CCC(=O)/C=C1/Sc2ccccc2N1CC	inactive	–
COc1ccccc1NS(=O)(=O)c1cc(NC(=O)c2ccc(Cl)nc2)ccc1N1CCCC1	inactive	–
COc1cc(C2c3cc4c(cc3OC(C)(N3CCCC3)C2C)OCO4)cc(OC)c1OC (configuration not stated)	inconclusive [cytotoxic, full curve]	–
COc1ccc(CCNC(=O)c2c([S-])n(-c3ccc(C)cc3)c3cccc[n+]23)cc1	inconclusive [cytotoxic, partial curve]	–
Cc1ccccc1Cn1ccc(NC(=O)c2nn(C)cc2[N+](=O)[O-])n1	inconclusive [cytotoxic, partial curve]	–
Cc1cc(N/N=C/c2ccccc2[N+](=O)[O-])nc(-n2nc(C)cc2C)n1	inconclusive [cytotoxic, partial curve]	–
COc1ccccc1Cc1c(-c2ccco2)nc2ccc(C)cn12	inconclusive [cytotoxic, single point]	–
COc1cc(-c2noc(C)c2C#Cc2ccsc2)cc(OC)c1OC	inconclusive [cytotoxic, full curve]	–
CCc1nc2ccc(C(=O)Nc3cc(-c4ccccc4)ccc3OC)cn2c1N(CCN(C)C)CC1CC1	inconclusive [cytotoxic, single point]	–
CCc1ccccc1OCC(=O)Nc1cccc(S(=O)(=O)N2CCCC2)c1	inactive	–

Structure (SMILES)	Potency	activity, negative = less viability
CC1CCC(NC(=O)CCS(=O)(=O)c2ccc3c(c2)CCN3C(=O)C2CC2)CC1 (configuration not stated)	inactive	–
Oc1c(N=NC(=S)Nc2ccccc2F)c2ccccc2n1Cc1cccc(Cl)c1	–	inconclusive: -23.4% [cytotoxic]
CC(=O)c1ccc(Nc2nc(C(N)Cc3ccc(C(F)(F)F)cc3)cs2)cc1 (configuration not stated)	inconclusive [cytotoxic, single point]	–
CN(CCCNC(=O)c1cc2c(Cl)nc3ccccc3c2s1)Cc1ccccc1	active: 16.4 µM	–
COc1ccc(OCc2nnc(SC3CCOC3=O)n2-c2ccccc2)cc1 (configuration not stated)	inconclusive [cytotoxic, single point]	–
CCC(C)C1NC(=S)N(C2CCCCC2)C1=O (configuration not stated)	inconclusive [cytotoxic, single point]	–
COc1cccc(C(C)(O)c2nc(-c3csc4ccccc34)cs2)c1 (configuration not stated)	active: 20.6 µM	–
COC(=O)c1cc2ccsc2n1CC(=O)Nc1cc(Cl)ccc1OC	active: 7.94 µM	–
Cc1cc(C(=O)C(=O)N(C)C)c(C)n1-c1ccc([N+](=O)[O-])cc1	–	inactive: -0.158% [at 9.24 µM]
COc1ccc(NC(=O)Cn2nnc(C(=O)NCCc3ccccc3)c2N)cc1	inconclusive [cytotoxic, single point]	–
Cc1ccc(C2C=CC(C#N)=CN2Cc2ccccc2)cc1 (configuration not stated)	inactive	–
COCCCNC(=O)c1ccccc1SC	inactive	–
CCC(C)c1ccc(S(=O)(=O)N2CCN(CC(O)CN3CCOCC3)CC2)cc1 (configuration not stated)	inactive	–
C=C1C(=O)[C@]23C[C@H]1CCC2[C@]1(C)CCC[C@@](C)(C(=O)O)C1C[C@@H]3O (some centres not stated)	active: 4.11 µM	–
COc1ccc(CCNCc2ccccc2N2CCCC2)cc1	inconclusive [cytotoxic, single point]	–
S=C(Nc1ccc(Cl)cc1)c1nc2ccccc2s1	inconclusive [cytotoxic, single point]	–
CC(C)C1C(=O)N(Cc2cn(Cc3ccco3)nn2)CCS(=O)(=O)N1Cc1ccc(-c2ccccc2)cc1 (configuration not stated)	inconclusive [cytotoxic, single point]	–
O=C(N/N=C/c1c(O)ccc2ccccc12)c1[nH]ncc1Br	inconclusive [cytotoxic, full curve]	–
Cn1c(=O)oc2cc(S(=O)(=O)Nc3cccc(F)c3)ccc21	inactive	–
C=CCN(CC=C)CCOc1cccc2ccccc12	inactive	–
Cc1sc2ncnc(NC3CCN(Cc4ccccc4)CC3)c2c1C	inconclusive [cytotoxic, partial curve]	–
Cc1ccc(C(=O)Oc2coc(CSc3nnc(NC(=O)c4cccs4)s3)cc2=O)cc1	inconclusive [cytotoxic, partial curve]	–
O=C(COC(=O)Cc1ccc(S(=O)(=O)N2CCCCC2)s1)Nc1ccc2c(c1)OCO2	inactive	–
Nc1nc(N2CCN(C/C=C/c3ccccc3)CC2)nc2ccccc12	inconclusive [cytotoxic, single point]	–

Structure (SMILES)	Potency	activity, negative = less viability
CCCCOc1ccc(S(=O)(=O)NCc2csc(C)n2)cc1	inconclusive [cytotoxic, single point]	–
O=C(NNC(=O)C1CCCO1)c1ccc(F)cc1 (configuration not stated)	inactive	–
Cc1ccc(-c2nc(CS(=O)(=O)CC(=O)N3CCc4ccccc4C3)c(C)o2)cc1	inactive	–
Cc1ccc(C=Nc2ccccc2C(N)=O)s1	active: 5.17 µM	–
O=C(CNC(=O)c1ccco1)OCC(=O)c1ccc([N+](=O)[O-])cc1	inactive	–
Cc1ccccc1Nc1nc(N)nc(CCl)n1	active: 1.16 µM	–
Cc1ccc(S(=O)(=O)Nc2ccccc2/C=N/c2nc3ccccc3n2C)cc1	inconclusive [cytotoxic, partial curve]	–
Cc1[nH]c(=O)[nH]c(=O)c1NS(=O)(=O)c1ccc2c(c1)CCCC2	inconclusive [cytotoxic, single point]	–
CCCOc1ccccc1-c1nc2c([nH]1)c(=O)[nH]c(=O)n2C	inconclusive [cytotoxic, single point]	–
O=C1CC(c2cccs2)c2ccc3ccccc3c2N1 (configuration not stated)	inconclusive [cytotoxic, single point]	–
CCOC(=O)[C@]12CCCC=C1N(Cc1ccc3c(c1)OCO3)C(=O)[C@H](CC(=O)NCc1cccc3ccccc13)C2	inconclusive [cytotoxic, single point]	–
COc1ccc(CNC(=O)CC[C@H]2O[C@@H](n3cnc4c(NC(=O)c5ccccc5)ncnc43)[C@H](O)[C@@H]2O)cc1	inactive	–
CC(C)(C)c1ccc(OCCC(=O)Nc2ccc(N3CCOCC3)cc2N2CCOCC2)cc1	inconclusive [cytotoxic, single point]	–
Cc1ccc(NC(=O)Cc2ccc(Cl)c(Cl)c2)cc1S(=O)(=O)N(C)C	inactive	–
O=C(NCc1ccc(Cl)cc1)c1cccc(NC(=O)c2ccccc2)c1	inactive	–
CC1=NN(c2ccc(Cl)cc2)C(=O)/C1=C\c1cccn1-c1ccc(S(N)(=O)=O)cc1	inconclusive [cytotoxic, single point]	–
O=C1CC(c2ccccc2)NN1 (configuration not stated)	inactive	–
CC1(C(=O)Nc2ccc(Cl)c(Cl)c2)CCN1C(=O)CC(c1ccccc1)c1ccccc1 (configuration not stated)	inconclusive [cytotoxic, single point]	–
O=C(NCc1ccc(OC(F)(F)F)cc1)C1CC(c2ccc(C(F)(F)F)cc2)=NO1 (configuration not stated)	inconclusive [cytotoxic, single point]	–
Cc1ccc(CNC(=O)CNC(=O)c2c(C)nn(C)c2Cl)cc1	–	inconclusive: 30.1%
COc1ccc(S(=O)(=O)N2CCCCCC2)cc1N(C)S(=O)(=O)c1ccc(C)cc1	inactive	–
COc1ccc(C2CC(=O)Oc3c(C(C)C)ccc(C)c32)cc1 (configuration not stated)	inconclusive [cytotoxic, partial curve]	–
CCOc1ccc(NC(=O)CN2CCN(CC(=O)Nc3ccc(Cl)c(C(F)(F)F)c3)CC2)cc1	inconclusive [cytotoxic, single point]	–
COc1ccccc1Cc1c(-c2ccc(Cl)cc2)nc2c(C)cc(Br)cn12	inconclusive [cytotoxic, partial curve]	–
